From PubChem BioAssay AID485360 (National Center for Advancing Translational Sciences (NCATS), 2010)
The whole screen tested about 230,000 compounds, of which about 1,500 (0.65%) were called active. Inconclusive means that the source gave no clear call. Such entries were picked first, then a sample of the others. Calls come from the whole dose curve; as a rule, active = well fitted inhibition curve with a large enough effect; inconclusive = small, poorly fitted or top-dose-only effect; inactive = no such curve, though single readings can be large or run the other way. Potencies beside an inconclusive call are fits to weak or partial responses and may not hold up.

Target: Lethal(3)malignant brain tumor-like protein 1 (Homo sapiens) (UniProt Q9Y468)
Assay: qHTS Assay for the Inhibitors of L3MBTL1; note: nearly all actives have a fitted effect of over 60% in size
Details: AlphaScreen L3MBTL1–H3K9me1 peptide binding; activity, negative = inhibition: at 57.1 µM (top of the series)
Summary of the method: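 L3MBTL1 50 nM + b-AHA-H3(1-15)K9me1 75 nM, 30 min RT; compound added, 30 min RT; streptavidin donor/Ni-chelate acceptor beads 10 ug/mL each final, 30 min RT dark; AlphaScreen read.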
% is set by controls: 0 for no effect and ±100 for the full control effect; potency is the fitted concentration of half-maximal effect; tags give direction and shape of the fitted curve.

Sequence of UniProt Q9Y468 (Q9Y468 whole entry, looked up): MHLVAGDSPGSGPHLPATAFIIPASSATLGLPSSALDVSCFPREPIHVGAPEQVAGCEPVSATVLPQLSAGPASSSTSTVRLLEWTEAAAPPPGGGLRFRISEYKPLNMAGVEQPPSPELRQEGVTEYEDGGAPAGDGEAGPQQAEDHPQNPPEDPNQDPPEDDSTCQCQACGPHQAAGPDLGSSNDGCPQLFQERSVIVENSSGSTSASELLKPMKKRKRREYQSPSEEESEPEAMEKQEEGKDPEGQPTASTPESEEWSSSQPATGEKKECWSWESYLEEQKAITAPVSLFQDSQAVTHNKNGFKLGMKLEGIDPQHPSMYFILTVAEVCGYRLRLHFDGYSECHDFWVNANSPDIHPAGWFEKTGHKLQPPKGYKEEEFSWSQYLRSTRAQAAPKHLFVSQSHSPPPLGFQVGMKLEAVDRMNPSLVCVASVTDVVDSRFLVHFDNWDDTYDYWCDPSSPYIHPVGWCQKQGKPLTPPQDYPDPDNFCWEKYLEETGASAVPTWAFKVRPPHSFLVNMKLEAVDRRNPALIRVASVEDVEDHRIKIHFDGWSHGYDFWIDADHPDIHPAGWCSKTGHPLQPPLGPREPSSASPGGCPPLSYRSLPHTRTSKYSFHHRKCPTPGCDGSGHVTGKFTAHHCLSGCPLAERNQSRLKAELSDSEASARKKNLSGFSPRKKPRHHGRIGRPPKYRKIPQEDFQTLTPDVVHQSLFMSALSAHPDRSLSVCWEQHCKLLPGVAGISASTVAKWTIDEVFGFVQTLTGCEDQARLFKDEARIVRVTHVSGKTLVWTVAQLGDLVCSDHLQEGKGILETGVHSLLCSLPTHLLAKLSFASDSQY

Row | SMILES | activity, negative = inhibition | Potency
1 | Cc1ccc(C(=O)c2c3ccc(C(F)(F)F)cc3[n+]([O-])n2CCC(N)=O)cc1 | inactive: -2.18% | –
2 | C/C(=N\Nc1ccccc1[N+](=O)[O-])c1ccccc1O | – | inconclusive: 11.2 µM [inhibitor, partial curve]
3 | O=C(O)C1(O)C[C@H](O)C(O)[C@@H](O)C1 (stereo partly specified) | inactive: 10.1% | –
4 | CC(C)N=c1scc(-c2ccco2)n1/N=C/c1ccc(O)c(O)c1 | – | inconclusive: 15.8 µM [inhibitor, partial curve]
5 | CCCC(=O)Nc1ccc(C2C(=O)c3ccccc3C2=O)cc1 | inactive: -6.68% | –
6 | CC(C)(C)c1cc(NC(=O)CSc2nncs2)n(-c2ccccc2)n1 | inactive: 10.6% | –
7 | CCc1nn(-c2ccccc2)c(=S)c2ccccc12 | – | inconclusive: 15.8 µM [inhibitor, partial curve]
8 | CC1=C(C#N)c2nc(N)c(C#N)c(C)c2/C1=C\c1ccc(OCC(=O)O)c(Cl)c1 | – | inconclusive: 22.4 µM [inhibitor, partial curve]
9 | CCn1c(C)cc(/C=C2/NC(=O)N(CC(=O)Nc3cccc(C)c3)C2=O)c1C | inactive: 0.629% | –
10 | O=C(NCc1ccco1)c1nc2nc(-c3cccs3)cc(C(F)(F)F)n2n1 | – | inconclusive: 31.6 µM [inhibitor, single point]
11 | Cc1ccccc1C(=O)Nc1nc(=S)ss1 | inactive: -3.57% | –
12 | N#CC1=C(N)C(C#N)(C#N)C(c2ccncc2)C2CN(C(=O)OCc3ccccc3)CC=C12 (stereo unspecified) | inactive: 21.9% [at 11.4 µM] | –
13 | Cc1nnc(SCC(N)=O)n1CCc1ccccc1 | – | inconclusive: 6.31 µM [inhibitor, full curve]
14 | CC(=O)c1ccc(N2CCN(C(=O)c3ccc4c(=O)n(-c5ccccc5)c(=O)[nH]c4c3)CC2)cc1 | – | inconclusive: 8.91 µM [inhibitor, full curve, poor fit]
15 | Fc1ccc(-n2cc(CNCCc3cccnc3)c(-c3ccccc3Cl)n2)cc1 | – | inconclusive: 4.47 µM [inhibitor, partial curve]
16 | Cc1ccc(Nc2ccc(S(=O)(=O)N3CCOCC3)cc2[N+](=O)[O-])cc1C | – | inconclusive: 11.2 µM [inhibitor, partial curve]
17 | COc1ccc(S(=O)(=O)NCCC(=O)NC2CCCCC2C)cc1[N+](=O)[O-] (stereo unspecified) | – | inconclusive: 39.8 µM [inhibitor, single point]
18 | CCCSc1sc(C(=O)OC)c(-c2cccs2)c1C#N | inactive: 74.4% | –
19 | Cc1nn(C)c(C)c1S(=O)(=O)Nc1ccc2c(c1)OCO2 | inactive: -5.44% | –
20 | COc1ccc(NC(=O)COC(=O)CCNC(=O)c2ccco2)cc1Cl | inactive: -6.17% | –
21 | O=C(O)Cc1c(O)ccc2ccccc12 | inactive: 10.4% | –
22 | COc1ccc(N=Nc2nc(-c3ccccc3)c(-c3ccccc3)[nH]2)cc1 | – | active: 15.8 µM
23 | O=C(O)C1=CC(=C(c2ccc(O)c(C(=O)O)c2)c2ccc(O)c(C(=O)O)c2)C=CC1=O | – | inconclusive: 0.0355 µM [inhibitor, full curve, poor fit]

Row | SMILES | activity, negative = inhibition | Potency
24 | N#C/C(=C\c1ccncc1)c1nc2ccccc2[nH]1 | inactive: -29.4% | –
25 | CC(C)(C)NC(=O)C(c1ccncc1)N(C(=O)CNC(=O)c1ccco1)c1ccc2c(c1)OCO2 (stereo unspecified) | – | inconclusive: 31.6 µM [inhibitor, single point]
26 | C=CCn1c(-c2cccc(OCC)c2)n[nH]c1=S | inactive: 5.98% | –
27 | Cc1cnc(C(=O)OCC(=O)c2c[nH]c3ccccc23)cn1 | inactive: 2.75% | –
28 | COc1ccc(-c2[nH]ncc2CN2CCCN(c3ccccc3)CC2)c(F)c1 | – | inconclusive: 25.1 µM [inhibitor, single point]
29 | CCCCN(CCCNC(=O)CN1C(=O)COc2ccccc21)c1ccccc1 | – | inconclusive: 14.1 µM [inhibitor, partial curve]
30 | O=C(Nc1nnc(C2CC2)s1)c1ccccn1 | – | inconclusive: 28.2 µM [inhibitor, single point]
31 | CCN(CC)c1ccc(/C=N/NC(=O)c2c(Cl)cnn2C)c(O)c1 | – | inconclusive: 25.1 µM [inhibitor, single point]
32 | FC(F)(F)c1cnc(Sc2nc3nccc(-c4ccc(Cl)cc4)n3n2)c(Cl)c1 | – | inconclusive: 0.708 µM [inhibitor, single point]
33 | Oc1cccc(/C=N/c2c(-c3ccco3)nc3ccccn23)c1 | – | inconclusive: 35.5 µM [inhibitor, single point]
34 | O=c1cc(-c2ccc(OCc3ccccc3)cc2)oc2cc(OCc3ccccc3)cc(OCc3ccccc3)c12 | – | inconclusive: 20 µM [inhibitor, partial curve]
35 | COc1ccccc1C(=O)NC(CCSC)C(=O)N1CCN(C/C=C/c2ccccc2)CC1 (stereo unspecified) | – | inconclusive: 0.794 µM [inhibitor, full curve, poor fit]
36 | CC(C)Nc1nc(NC(C)C)nc(NS(=O)(=O)c2ccc(N)cc2)n1 | – | inconclusive: 4.47 µM [inhibitor, full curve]
37 | CC(OC(=O)c1cnccn1)C(=O)c1ccccc1 (stereo unspecified) | inactive: 2.14% | –
38 | CN(c1ccccc1)c1nc(-n2ccnc2)nc(-n2ccnc2)n1 | – | inconclusive: 39.8 µM [inhibitor, single point]
39 | CC(C)N(C(=O)CSc1ccc(S(=O)(=O)N2CCCCC2)cn1)C(C)C | inactive: 0.351% | –
40 | Cc1cc(OCC(=O)OCC(=O)N2c3ccccc3NC(=O)C2(C)C)ccc1Cl | – | inconclusive: 39.8 µM [inhibitor, single point]
41 | CCCn1c2c(c(O)c(C(=O)NCCCN(CC)CC)c1=O)CCCC2 | – | inconclusive: 5.62 µM [inhibitor, single point]
42 | CCc1nnc(NC(=O)Cc2cccs2)s1 | inactive: 1.52% | –
43 | O=C(NCC(c1ccco1)N1CCc2ccccc21)c1ccccc1F (stereo unspecified) | inactive: -8.61% | –
44 | COc1ccccc1CN1C[C@@H]2C[C@@H](c3[nH]c4ccc(C)cc4c3C)N3CCC[C@@]23C1=O | – | inconclusive: 10 µM [inhibitor, partial curve, poor fit]
45 | CCCn1c(NCc2ccco2)nc2c1c(=O)n(C)c(=O)n2C | – | inconclusive: 28.2 µM [inhibitor, single point]
46 | COc1ccc([N+](=O)[O-])cc1NS(=O)(=O)c1ccccc1 | – | inconclusive: 35.5 µM [inhibitor, single point]
